Results published in PubChem BioAssay AID1460 (National Center for Advancing Translational Sciences (NCATS), 2008).
Values joined by “and” are separate entries in the source; they are usually repeats but may differ in a detail not shown here. Identical values can stand only once. Out of some 270,000 compounds screened, about 5,800 (2.1%) were called active. Inconclusive means that the source gave no clear call. Such entries were picked first, then a sample of the others. Calls come from the whole dose curve; as a rule, active = well fitted inhibition curve with a large enough effect; inconclusive = small, poorly fitted or top-dose-only effect; inactive = flat fitted curve, though single readings scatter. A potency beside an inconclusive call is a rough fit, not a confirmed value.

What follows are compounds tested against Microtubule-associated protein tau (Homo sapiens) (UniProt P10636) (assay: qHTS for Inhibitors of Tau Fibril Formation, Thioflavin T Binding). Settings: recombinant tau K18 P301L, heparin-induced fibrillization, ThT fluorescence; series mostly up to 57.4 µM; activity, negative = inhibition: at the top concentration.
Chain of UniProt P10636 (P10636 whole entry, looked up): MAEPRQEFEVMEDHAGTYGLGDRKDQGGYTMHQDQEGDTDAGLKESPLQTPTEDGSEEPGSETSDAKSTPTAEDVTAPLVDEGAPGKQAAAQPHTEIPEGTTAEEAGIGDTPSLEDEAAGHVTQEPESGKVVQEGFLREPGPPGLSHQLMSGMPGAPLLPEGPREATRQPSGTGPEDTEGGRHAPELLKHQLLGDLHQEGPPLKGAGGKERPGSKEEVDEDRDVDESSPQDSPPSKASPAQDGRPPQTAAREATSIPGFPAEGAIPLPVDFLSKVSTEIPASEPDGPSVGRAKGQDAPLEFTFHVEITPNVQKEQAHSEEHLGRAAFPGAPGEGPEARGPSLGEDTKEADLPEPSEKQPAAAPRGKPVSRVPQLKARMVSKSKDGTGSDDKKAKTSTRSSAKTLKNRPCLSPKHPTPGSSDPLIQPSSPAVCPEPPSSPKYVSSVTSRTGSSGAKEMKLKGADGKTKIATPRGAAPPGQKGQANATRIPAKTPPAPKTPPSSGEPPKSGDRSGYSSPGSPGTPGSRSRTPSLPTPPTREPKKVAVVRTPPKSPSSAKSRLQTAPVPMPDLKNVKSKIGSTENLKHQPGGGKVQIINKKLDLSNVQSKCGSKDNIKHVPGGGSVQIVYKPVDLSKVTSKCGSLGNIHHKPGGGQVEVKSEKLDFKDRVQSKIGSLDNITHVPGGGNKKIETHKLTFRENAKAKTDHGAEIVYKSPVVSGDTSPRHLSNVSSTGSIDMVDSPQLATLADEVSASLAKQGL
Summary of the method: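 Fibril formation assay: tau K18 P301L at 15 uM with trace Alexa 594 label, heparin inducer 20 uM, pH 7 sodium acetate buffer, 37 C for 6 hr; endpoint ThT signal.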
% is set by controls: 0 for no effect and ±100 for the full control effect; potency is the fitted concentration of half-maximal effect; tags give direction and shape of the fitted curve.
Note: nearly all actives have a fitted effect of over 55% in size.

Row | Compound | Potency | activity, negative = inhibition
1 | CCCCN(C)c1ncnc2c1cnn2-c1cccc(Cl)c1 | inconclusive: 1.58 µM [inhibitor, full curve, poor fit] | 
2 | CCn1cc(S(=O)(=O)CC(=O)N2CCc3ccccc32)c2ccccc21 | inconclusive: 39.8 µM [inhibitor, single point] | 
3 | N#Cc1ccccc1NC(=O)C(=O)NCC(c1cccnc1)N1CCc2ccccc2C1 (centres undefined) | inconclusive: 22.4 µM [inhibitor, partial curve, poor fit] | 
4 | CS(=O)(=O)c1ccc2nc(NC(=O)Oc3ccccc3)sc2c1 |  | inactive: -14.4%
5 | CC(C)(C)c1cc(NCCCn2ccnc2)n2ncc(-c3ccccc3)c2n1 | inconclusive: 17.8 µM [inhibitor, partial curve] | 
6 | CCCCCOc1ccc2oc(=O)c3c(c2c1)CCCN3C(=O)CN1CCCC(C(=O)OCC)C1 (centres undefined) | inconclusive: 15.8 µM [inhibitor, partial curve] | 
7 | CC1(C)C(=O)C(c2ccccc2)=C2CN3C(=O)N(CCc4ccccc4)C(=O)C3(Cc3ccc(F)cc3)C=C21 (centres undefined) | inconclusive: 35.5 µM [inhibitor, single point] | 
8 | CCCCOc1ccc(C(=O)NCCc2cccs2)cc1 | inconclusive: 8.91 µM [inhibitor, full curve, poor fit] | 
9 | Cc1cc(C)cc(NC(=O)Cn2nnc(C(=O)NCc3ccco3)c2N)c1 | inconclusive: 22.4 µM [inhibitor, single point] | 
10 | Cc1c(C(=O)N(C)C)c2cc(Cl)ccc2n1O |  | inactive: -11.9%
11 | COc1ccc2cc3c(N)nn(C(=O)C4CCC(C(C)(C)C)CC4)c3nc2c1 (centres undefined) | inconclusive: 28.2 µM [inhibitor, partial curve] | 
12 | O=C1Nc2c(ccc(Cl)c2Cl)C(=O)C1(F)c1ccccc1 (centres undefined) | inconclusive: 22.4 µM [inhibitor, partial curve] | 
13 | Cc1cc(C)cc(C(=O)Nc2c3c(nn2-c2ccccc2C)CS(=O)(=O)C3)c1 |  | inactive: -3.39%
14 | Cc1ccc(Cl)cc1N1CCN(C(=O)Cn2nc(C)n3c(cc4sccc43)c2=O)CC1 | inconclusive: 10 µM [inhibitor, partial curve] | 
15 | Cc1nc(SCC(=O)N2CCN(c3ccccc3)CC2)c2oc3ccccc3c2n1 | inconclusive: 12.6 µM [inhibitor, partial curve] | 
16 | Cc1ccsc1C(=O)OCC(=O)NCc1ccc2c(c1)OCO2 | inconclusive: 7.08 µM [inhibitor, single point] | 
17 | NC(=O)C1CCN(c2cc(Cl)ccc2[N+](=O)[O-])CC1 | inconclusive: 5.62 µM [inhibitor, partial curve, poor fit] | 
18 | Cc1ccc2[nH]c(=O)c(-c3nc4ccccn4c3NCc3ccco3)cc2c1 | inconclusive: 15.8 µM [inhibitor, partial curve] | 
19 | CCOC(=O)c1c(NC(C)=O)c2c3c(sc2n1Cc1cccc(Cl)c1)CCCC3 |  | inactive: -0.565%
20 | Cc1ccc(-c2[nH]c3ccccc3c2C(C[N+](=O)[O-])c2ccco2)cc1 (centres undefined) | inconclusive: 31.6 µM [inhibitor, single point] | 
21 | COc1ccc(N2CCN(S(=O)(=O)CCNC(=O)Cc3ccc(-c4ccccc4)cc3)CC2)cc1 | inconclusive: 11.2 µM [inhibitor, partial curve, poor fit] | 
22 | COc1cc(/C=N/N2C(=O)c3ccccc3C2=O)ccc1O | inconclusive: 39.8 µM [inhibitor, single point] | 
23 | O=C1c2ccccc2C(Nc2ccc3c(c2)OCCO3)N1c1ccc(Cl)cn1 (centres undefined) | inconclusive: 31.6 µM [inhibitor, single point] | 

Row | Compound | Potency | activity, negative = inhibition
24 | C=CCN(CC=C)CC(O)CN(c1cc([N+](=O)[O-])ccc1OC)S(=O)(=O)c1ccccc1 (centres undefined) | inconclusive: 14.1 µM [inhibitor, partial curve, poor fit] | 
25 | Cn1cc(/C=N/n2cnc3sc4c(c3c2=O)CCCC4)c2ccccc21 |  | inactive: -8.04%
26 | COc1ccc(C(=O)Nc2ccc3nc(N4CCCCC4)cc(C)c3c2)c(OC)c1 | inconclusive: 2.51 µM [inhibitor, full curve] and inconclusive: 5.01 µM [inhibitor, partial curve] | 
27 | CCn1c2ccccc2c2cc(/C=N/n3cn[nH]c3=S)ccc21 | inconclusive: 5.62 µM [inhibitor, partial curve] | 
28 | COc1ccc(NCc2cccn2-c2nnc(N3CCOCC3)s2)c(OC)c1 |  | inactive: -7.79%
29 | CN1C2C=C3C(C#N)=C(N)C(C#N)(C#N)[C@H](c4c(F)cccc4F)[C@H]3C1CC2 (some centres undefined) | active: 14.1 µM | 
30 | COC(=O)c1sc(NC(=O)COc2ccccc2)nc1C | inconclusive: 1.26 µM [inhibitor, full curve] | 
31 | CC(C)(C)n1nnnc1C(c1ccncc1)N1CCN(c2ccc(O)cc2)CC1 (centres undefined) |  | inactive: -22.5%
32 | CCOc1ccc2nc(NC(=O)CSC3=NCCS3)sc2c1 | inconclusive: 2.51 µM [inhibitor, full curve] | 
33 | O=C1c2ccccc2C(=O)N1Nc1ccccc1 |  | inactive: 2.59%
34 | CCOC(=O)c1cccc(NC(=O)C2CCN(c3nnc(C)c4c(C)n(-c5ccccc5)nc34)CC2)c1 | inconclusive: 39.8 µM [inhibitor, single point] | 
35 | Cc1cc(N(CCO)Cc2ccccc2)n2nc(-c3ccc(C(C)(C)C)cc3)nc2n1 |  | inactive: -14.5%
36 | NC(=O)CC(NC(=O)Cc1ccc(Br)cc1)c1ccc(NCC2CC2)c([N+](=O)[O-])c1 (centres undefined) | inconclusive: 8.91 µM [inhibitor, partial curve] | 
37 | COc1cccc(-n2nnnc2SCC(=O)NCc2ccco2)c1 |  | inactive: -12.6%
38 | CCCCOc1ccc(-c2c(C#N)c(N)[nH]c(=S)c2C#N)cc1 | inconclusive: 17.8 µM [inhibitor, partial curve] | 
39 | CCOc1ccc(Br)cc1/C(C)=N\NC1=NCCN1 |  | inactive: -8.43%
40 | CC(C)(C)c1csc(NNC(=O)c2ccc(Br)cc2)n1 | inconclusive: 22.4 µM [inhibitor, partial curve] | 
41 | CCOC(=O)N1CCN(S(=O)(=O)/C=C/c2ccccc2)CC1 |  | inactive: -3.65%
42 | COc1cc(OC)c(NC(=O)c2cn(C3CCCC3)c(=O)c3c2c2ccccc2n3C)cc1Cl |  | inactive: -10.4%
43 | COc1ccc(NC(=O)C(CC(C)C)NC(=O)C2CCCCC2)cc1 (centres undefined) |  | inactive: -5.31%
44 | COc1ccccc1NC(=O)Cn1c(=O)n(-c2cccc(C)c2)c(=O)c2c1c1cc(C)ccc1n2C |  | inactive: -13.6%
45 | N/C(=N\OS(=O)(=O)c1ccc(Br)cc1)c1ccncc1 | inconclusive: 11.2 µM [inhibitor, partial curve] | 
46 | Cc1ccc2oc(-c3ccccc3)c(O)c(=O)c2c1 | inconclusive: 12.6 µM [inhibitor, partial curve, poor fit] | 

Row | Compound | Potency | activity, negative = inhibition
47 | Cn1ccnc1C(O)c1cc(C(C)(C)C)c(O)c(C(C)(C)C)c1 (centres undefined) | inconclusive: 28.2 µM [inhibitor, single point] | 
48 | COc1ccc(-c2coc3c2c(C)cc2oc(=O)c(CC(=O)O)c(C)c23)cc1 | inconclusive: 15.8 µM [inhibitor, partial curve, poor fit] | 
49 | NS(=O)(=O)c1ccc(Nc2nc(-c3ccc4ccccc4c3)cs2)cc1 | inconclusive: 2.82 µM [inhibitor, full curve, poor fit] | 
50 | CCOc1ccc(CN2CCc3nc(N4CCN(c5ccccn5)CC4)ncc3C2)cc1OC | inconclusive: 31.6 µM [inhibitor, partial curve, poor fit] | 
51 | COc1ccc(Nc2sc(C(=O)Nc3cccc(Cl)c3)c(N)c2C(=O)Nc2ccccc2OC)cc1 | inconclusive: 8.91 µM [inhibitor, partial curve] | 
52 | CCOC(=O)c1ncn2c1C(=O)OC2(C)C | inconclusive: 7.08 µM [inhibitor, full curve] | 
53 | N/C(=N\NC(=O)c1cccs1)c1cc2ccccc2oc1=O | inconclusive: 14.1 µM [inhibitor, partial curve] | 
54 | COc1cccc(/C=N/Nc2ncnc3scc(-c4ccccc4)c23)c1O |  | inactive: -2.4%
55 | Cc1ccc(CSc2nc3c(cc2C#N)CCC3)cc1 |  | inactive: -8.37%
56 | O=C(Nc1ccc(N=Nc2ccccc2)cc1)c1ccccc1Cl | inconclusive: 1.26 µM [inhibitor, full curve] | 
57 | O=C(CS(=O)(=O)c1ccc(Cl)cc1)NCCS(=O)(=O)c1ccc(Cl)cc1 |  | inactive: 2.22%
58 | Cc1ccc(N2C(=O)C(Cl)=C(Nc3c(C)n(C)n(-c4ccccc4)c3=O)C2=O)cc1 | active: 28.2 µM | 
59 | COc1ccc(Cc2nc(C(=O)NCc3ccccc3OC)cs2)cc1 | inconclusive: 17.8 µM [inhibitor, partial curve] | 
60 | COc1ccc(-c2cc(=O)[nH][nH]2)cc1 | active: 2.24 µM | 
61 | COc1ccc(C(=O)Nc2scc(-c3ccc(Cl)cc3Cl)c2C(N)=O)cc1 | inconclusive: 3.16 µM [inhibitor, full curve] | 
62 | COc1ccc(N(Cc2nnc3n2CCCCC3)C(=O)Nc2cccc(C)c2)cc1Cl |  | inactive: 4.2%
63 | COc1ccccc1CN1CCNC(=O)C1=O |  | inactive: -4.12%
64 | COc1ccc(-c2cc(-c3ccccc3O)[nH]n2)cc1 |  | inactive: -17.7%
65 | Clc1cccc(N2CCN(CCNc3nc4ccccc4n4cnnc34)CC2)c1 | inconclusive: 22.4 µM [inhibitor, single point] | 
66 | Nc1nncn1C(=O)c1cccs1 | inconclusive: 39.8 µM [inhibitor, single point] | 
67 | COc1ccc(OC)c(C(=O)COC(=O)c2c(OC)cccc2OC)c1 |  | inactive: -10.2%
68 | CC(=O)c1sc2ccccc2c1OC(=O)c1ccco1 | inconclusive: 20 µM [inhibitor, partial curve] | 
69 | COc1ccc(C2C=C(c3ccc(Br)s3)Nc3ncnn32)cc1OC (centres undefined) | inconclusive: 35.5 µM [activator, single point] | 
